According to PMC10562560, “Molecular basis for cellular retinoic acid-binding protein 1 in modulating CaMKII activation” (Frontiers in Molecular Biosciences, 2023):

Molecular target: T1, His-tagged wild-type (WT) CRABP1 (Mus musculus, UniProt P62965)
T1 construct: Expected MW about 17 kDa; also called His-CRABP1; source: E. coli, purified (HisTrap nickel column, SEC)
Assay: pull-down; purified His-CRABP1 (WT or mutant, 5 uM) held on Ni-NTA resin as bait; 250 ug pre-cleared lysate of HEK293T cells expressing GFP-CaMKII (DMSO or ionomycin 10 uM, 10 min) as prey; 50 mM Tris pH 8.0, 150 mM NaCl, 0.2% NP-40, 20% glycerol, 200 mM imidazole, overnight at 4°C; Western blot with anti-GFP and anti-His; densitometry gives the CCI (n = 5)
Conditions: one partner purified

T1 sequence (P62965 2-137): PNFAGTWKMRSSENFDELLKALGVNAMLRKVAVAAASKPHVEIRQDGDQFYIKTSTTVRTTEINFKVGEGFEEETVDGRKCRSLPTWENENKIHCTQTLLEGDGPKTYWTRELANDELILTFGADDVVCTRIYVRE

- CRABP1–CaMKII Complex Index (CCI; ratio of inactive to active CaMKII pulled down): ~2
B1: GFP-CaMKII beta, inactive (from vehicle-treated HEK293T cells) (enzyme, Rattus norvegicus)
chain: MATTVTCTRFTDEYQLYEDIGKGAFSVVRRCVKLCTGHEYAAKIINTKKLSARDHQKLEREARICRLLKHSNIVRLHDSISEEGFHYLVFDLVTGGELFEDIVAREYYSEADASHCIQQILEAVLHCHQMGVVHRDLKPENLLLASKCKGAAVKLADFGLAIEVQGDQQAWFGFAGTPGYLSPEVLRKEAYGKPVDIWACGVILYILLVGYPPFWDEDQHKLYQQIKAGAYDFPSPEWDTVTPEAKNLINQMLTINPAKRITAHEALKHPWVCQRSTVASMMHRQETVECLKK[skipping about 20 residues]VGRQTTAPATMSTAASGTTMGLVEQAKSLLNKKADGVKPQTNSTKNSSAITSPKGSLPPAALEPQTTVIHNPVDGIKESSDSTNTTIEDEDAKARKQEIIKTTEQLIEAVNNGDFEAYAKICDPGLTSFEPEALGNLVEGMDFHRFYFENLLAKNSKPIHTTILNPHVHVIGEDAACIAYIRLTQYIDGQGRPRTSQSEETRVWHRPDGKWQNVHFHCSGAPVAPLQ
notes: Calcium/calmodulin-dependent protein kinase II beta isoform (CaMKII beta), Rattus norvegicus, expression construct Addgene #21227; the state in the lysate was not measured; also called CaMKII (– ionomycin); source: HEK293T, transfected, DMSO (vehicle) treated, in lysate
